# Measurements taken from PubChem BioAssay AID504332 (National Center for Advancing Translational Sciences (NCATS), 2011).
# Among all 350,000 compounds or so, about 31,000 (8.9%) were called active. This list was built around the results that the source calls inconclusive (neither active nor inactive); the mix of calls is not that of the screen. Calls follow the shape of the dose curve; as a rule, active = well fitted inhibition curve with a large enough effect; inconclusive = small, poorly fitted or top-dose-only effect; inactive = no such curve, though single readings can be large or run the other way. A potency beside an inconclusive call is a rough fit, not a confirmed value.
# Target: Histone-lysine N-methyltransferase EHMT2 (Homo sapiens) (UniProt Q96KQ7)
# Chain of UniProt Q96KQ7 (Q96KQ7 whole entry, looked up): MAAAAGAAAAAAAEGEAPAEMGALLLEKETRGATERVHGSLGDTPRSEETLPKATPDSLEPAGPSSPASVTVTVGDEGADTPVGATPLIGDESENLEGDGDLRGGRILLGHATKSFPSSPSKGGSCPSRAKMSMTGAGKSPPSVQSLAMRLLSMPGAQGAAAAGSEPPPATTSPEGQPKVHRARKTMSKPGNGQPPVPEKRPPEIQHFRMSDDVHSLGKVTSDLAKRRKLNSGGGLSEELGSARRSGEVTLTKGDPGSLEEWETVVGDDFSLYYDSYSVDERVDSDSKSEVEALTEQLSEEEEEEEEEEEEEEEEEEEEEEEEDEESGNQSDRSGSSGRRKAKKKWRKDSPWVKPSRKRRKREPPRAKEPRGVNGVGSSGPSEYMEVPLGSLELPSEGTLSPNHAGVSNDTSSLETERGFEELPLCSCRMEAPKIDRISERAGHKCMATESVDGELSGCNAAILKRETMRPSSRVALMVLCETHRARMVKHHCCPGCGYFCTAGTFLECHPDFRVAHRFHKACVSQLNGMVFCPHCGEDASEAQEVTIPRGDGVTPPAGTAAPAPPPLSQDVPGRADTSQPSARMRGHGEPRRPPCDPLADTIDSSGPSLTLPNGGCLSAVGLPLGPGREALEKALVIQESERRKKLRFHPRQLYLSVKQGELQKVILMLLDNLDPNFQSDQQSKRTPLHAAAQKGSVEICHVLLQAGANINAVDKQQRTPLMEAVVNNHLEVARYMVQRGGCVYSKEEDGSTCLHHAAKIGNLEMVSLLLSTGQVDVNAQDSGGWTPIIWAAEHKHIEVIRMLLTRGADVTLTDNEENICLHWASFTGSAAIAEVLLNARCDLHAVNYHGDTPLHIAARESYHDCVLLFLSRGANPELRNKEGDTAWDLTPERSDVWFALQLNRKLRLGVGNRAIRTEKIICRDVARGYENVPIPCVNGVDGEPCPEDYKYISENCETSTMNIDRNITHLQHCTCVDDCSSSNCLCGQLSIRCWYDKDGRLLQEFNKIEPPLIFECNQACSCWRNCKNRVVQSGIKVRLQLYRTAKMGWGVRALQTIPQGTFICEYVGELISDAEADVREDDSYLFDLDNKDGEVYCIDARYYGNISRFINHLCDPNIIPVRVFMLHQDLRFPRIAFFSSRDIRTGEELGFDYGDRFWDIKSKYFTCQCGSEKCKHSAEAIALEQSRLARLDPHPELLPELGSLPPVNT
# Experiment: qHTS Assay for Inhibitors of Histone Lysine Methyltransferase G9a; also: nearly all actives have a fitted effect of over 75% in size
# Settings: G9a H3K9 monomethylation, AlphaScreen, 2 h; activity, negative = inhibition: at 59 µM (top of the series) unless noted
# Summary of the method: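 Readings reflect AlphaScreen signal from monomethyl-H3K9 antibody detection. HMT at 20 nM; substrate b-H3K9 500 nM; cofactor SAM 20 uM; 2 h RT reaction; compounds tested as titrations in qHTS with 15 min preincubation.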
# % is scaled to controls: 0 for no effect and ±100 for the full control effect; potency is read from the fitted curve at half-maximal effect; tags tell the direction and shape of the fitted curve.
Compound,Potency,"activity, negative = inhibition"
COc1ccc(-c2ccc3c(N)c(C(=O)c4cccc(OC)c4)sc3n2)cc1,active: 50.1 µM,
O=C(O)c1cccc(S(=O)(=O)N2CCCC2)c1,"inconclusive: 79.4 µM [inhibitor, single point]",
O=C(Cc1ccccc1F)Nc1cc(Cl)ccc1N1CCCC1,active: 44.7 µM,
Cc1ccc(-n2c(C)cc(C(=O)OCC(=O)N(C)C3CCS(=O)(=O)C3)c2C)cc1 (stereo not drawn),active: 50.1 µM,
CCOc1ccccc1C(=O)N1CC(=O)Nc2ccc(Cl)cc2C1c1ccccc1 (stereo not drawn),"inconclusive: 11.2 µM [inhibitor, partial curve, poor fit]",
Cc1cc(NC(=O)c2ccccc2-c2ccccc2C(=O)O)no1,"inconclusive: 89.1 µM [inhibitor, single point]",
COc1ccc(-c2cccc(NS(=O)(=O)c3cc(C)c(OC)c(C)c3C)c2)nn1,"inconclusive: 35.5 µM [inhibitor, single point]",
COC(=O)c1ccc(CSc2nnc(Nc3ccccc3OC)s2)o1,"inconclusive: 31.6 µM [inhibitor, single point]",
Nc1cccc(-c2cnc3ccccc3n2)c1,"inconclusive: 70.8 µM [inhibitor, partial curve]",
CCOC(=O)c1sc(=S)n(-c2ccccc2)c1N(C(C)=O)C(C)=O,,inactive: -0.284%
O=C(CC1C(=O)NCCN1Cc1cccc(C(F)(F)F)c1)NCCc1cnccn1 (stereo not drawn),,inactive: 60.6% [at 102 µM]
O=[N+]([O-])c1cccc(CNc2ccc3c(c2)CCC3)c1,active: 12.6 µM,
CCc1ccc(-c2nc(CN3CCCC(C(=O)N4CCN(c5cc(Cl)ccc5C)CC4)C3)c(C)o2)cc1 (stereo not drawn),active: 8.91 µM,
O=C(Nc1nnc(-c2ccco2)s1)c1ccccc1,"inconclusive: 50.1 µM [inhibitor, partial curve, poor fit]",
COc1cc(OC)c(NC(C)C(=O)N2CCCC2)cc1Cl (stereo not drawn),"inconclusive: 15.8 µM [inhibitor, partial curve, poor fit]",
O=C(Nc1cc2c3c(c1)CC(=O)N3CCC2)c1ccc(Br)cc1,,inactive: -50% [at 102 µM]
Cc1ccc(Cl)cc1N1CCN(C(=S)NCc2ccco2)CC1,"inconclusive: 56.2 µM [inhibitor, partial curve, poor fit]",
COc1ccc(CCNC(=O)[C@H](C)N2C(=O)N3CCc4c([nH]c5ccccc45)[C@@]3(C)C2=O)cc1,"inconclusive: 100 µM [inhibitor, single point]",
O=C(CC(c1cccs1)N1Cc2ccccc2C1=O)Nc1ccc(F)c(Cl)c1 (stereo not drawn),,inactive: -7.15%
O=C1c2ccccc2C(Nc2ccc(Cl)cn2)N1c1ccccn1 (stereo not drawn),"inconclusive: 39.8 µM [inhibitor, single point]",
CCOC(=O)c1c(NC(=S)Nc2ccccc2C)sc2c1CCC2,,inactive: 38.7%
CCCN(CCC)S(=O)(=O)c1ccc(C(=O)NCc2ccc3c(c2)OCO3)cc1,,inactive: 16% [at 102 µM]
O=C(C1CCN(c2nnc(-n3cccc3)s2)CC1)N1CCc2ccccc2C1,"inconclusive: 31.6 µM [inhibitor, single point]",
Cc1ccc(C(=O)O)cc1-c1ccc(C=C2C(=O)c3ccccc3C2=O)o1,active: 17.8 µM,
COc1ccc(-c2noc(-c3cccnc3NCc3ccco3)n2)cc1,"inconclusive: 39.8 µM [inhibitor, single point]",

Compound,Potency,"activity, negative = inhibition"
COc1ccc(O)c(CN2CCN(CCCc3ccccc3)C(CCO)C2)c1 (stereo not drawn),,inactive: -17.3% [at 102 µM]
Cc1cccc(-n2c(=O)c3c(c4cc(C)ccc4n3C)n(CC(=O)NCCC3=CCCCC3)c2=O)c1,,inactive: -0.189%
N#CCSc1nnc(COc2cccc3ccccc23)n1-c1cccc(Cl)c1,"inconclusive: 31.6 µM [inhibitor, partial curve]",
CCCCCC(=O)NC(NC(=S)NC1CCS(=O)(=O)C1)C(Cl)(Cl)Cl (stereo not drawn),active: 25.1 µM,
CCN1CCN(c2nnc(-n3cccc3C(=O)Nc3cccc(OC)c3)s2)CC1,,inactive: -29.2%
CN(C)C(CN=C1NS(=O)(=O)c2ccccc21)c1ccco1 (stereo not drawn),"inconclusive: 50.1 µM [inhibitor, partial curve, poor fit]",
NC(=S)N/N=C/c1ccc2cccc(OCc3ccccc3)c2n1,"inconclusive: 44.7 µM [inhibitor, partial curve]",
COc1ccc(C2CC(=O)c3c(C)nc(N4CCN(C=O)CC4)nc3C2)c(OC)c1 (stereo not drawn),,inactive: -18.5%
CCOC(=O)c1ccc(N=c2ssnc2Cl)cc1,active: 1.78 µM,
COc1ccc(S(=O)(=O)Cc2ccc(C(=O)NCCCN(C)c3ccccc3)o2)cc1,"inconclusive: 39.8 µM [inhibitor, single point]",
CCOC(=O)c1cccc(NC(=O)c2cc3sccc3n2C)c1,,inactive: -3.54% [at 12.7 µM]
COc1ccc(/C=C2\SC(=S)N(CCCC(=O)N3CCOCC3)C2=O)cc1OC,,inactive: 9.05% [at 102 µM]
O=C(CCN1C(=O)COc2ccccc21)NCCN1CCc2ccccc2C1,,inactive: -9.8%
CCN(CC)CCN1C(=O)C(O)=C(C(=O)c2ccco2)C1c1ccccn1 (stereo not drawn),active: 11.2 µM,
CCC(C)n1c(SCc2ccc(C(C)(C)C)cc2)nc2ccsc2c1=O (stereo not drawn),,inactive: 23.9%
CCN(CC(=O)Nc1ccc2c(c1)OCCO2)C(=O)C(C)Oc1ccc(Cl)cc1 (stereo not drawn),,inactive: -30.3% [at 102 µM]
Nc1nc2c(ncn2[C@@H]2O[C@H](COP(=O)(O)OP(=O)(O)O)[C@@H](O)[C@H]2O)c(=O)[nH]1,,inactive: 49.8%
O=C(Nc1ccon1)c1cc2c(s1)CCCC2,"inconclusive: 79.4 µM [inhibitor, partial curve, poor fit]",
CC(=O)c1cccc(NC(=O)COC(=O)CCC(=O)c2cccs2)c1,,inactive: 9.83% [at 0.501 µM]
CCC(=O)OCCNc1cc(SCCC(=O)OC)c2nonc2c1[N+](=O)[O-],active: 12.6 µM,
COc1ccccc1N/N=C/c1c(CO)cnc(C)c1O,active: 14.1 µM,
COc1cc([N+](=O)[O-])cc(/C=N/NC(=O)Cn2cncn2)c1O,"inconclusive: 39.8 µM [inhibitor, partial curve, poor fit]",
COC(=O)c1cc(-c2c(C)oc3cc(OC)ccc3c2=O)c(C)o1,"inconclusive: 39.8 µM [inhibitor, single point]",
O=S(=O)(c1ccccc1)c1nc(-c2cccs2)oc1SCc1ccccc1Cl,,inactive: -25.3%
COC(=O)c1ccc2[nH]c(C(C)(C)O)c(C)c2c1,"inconclusive: 89.1 µM [inhibitor, single point]",

Compound,Potency,"activity, negative = inhibition"
O=C(/C=C/c1ccccc1)c1ccc(NC2=NCCCS2)cc1,"inconclusive: 22.4 µM [inhibitor, single point]",
COc1ccc(Nc2nnc(SCC(=O)/C=C3/N(C)c4ccccc4C3(C)C)s2)cc1,"inconclusive: 1.41 µM [inhibitor, full curve, poor fit]",
O=Nc1ccc(NOC(=O)c2ccc(Br)cc2)cc1,"inconclusive: 89.1 µM [inhibitor, single point]",
CCOC(=O)c1c(C)[nH]c(C(=O)OCC(=O)Nc2sccc2C(N)=O)c1C,"inconclusive: 79.4 µM [inhibitor, single point]",
C=CCn1nc2ccccc2c1OC,,inconclusive: -62.1% [inhibitor] [at 2.33 µM]
CCOC(=O)c1ccc(CC2S/C(=C(\C#N)C(C)=O)NC2=O)cc1 (stereo not drawn),"inconclusive: 28.2 µM [inhibitor, single point]",
O=C(COc1cccc(Cl)c1)Nc1ccc(N2CCOCC2)cc1,active: 79.4 µM,
COc1ccc(-c2cc(C(=O)Nc3ccc(C(N)=O)cc3)c3ccccc3n2)cc1,"inconclusive: 89.1 µM [inhibitor, single point]",
CCOC(=O)c1c(-c2ccc(C)cc2)csc1NC(=O)c1cc(=O)c2cc(Cl)ccc2o1,,inactive: 14%
COc1ccc(-c2nc3cnc(N(C)C)nc3n(C3CC3)c2=O)cc1,,inactive: -2.77% [at 0.501 µM]
O=C(CSc1nnc(Cc2csc(Nc3cccc(Cl)c3)n2)o1)N1CCc2ccccc21,"inconclusive: 79.4 µM [inhibitor, single point]",
Cc1ccc(C(=O)NC(=S)Nc2ccc(N3CCOCC3)cc2)cc1C,"inconclusive: 8.91 µM [inhibitor, full curve, poor fit]",
Cc1ccc(Cl)cc1N1CCN(C(=O)C2CCN(c3nnc(-n4cccc4)s3)CC2)CC1,,inactive: -1.09%
O=C(Cc1cccs1)NCCN1CCOCC1,,inactive: -2.86%
COc1ccccc1NCCC(=O)OCC(=O)NC1CCCCC1,active: 3.55 µM,
CCCOc1ccc(C2/C(=C(/O)c3ccc(F)cc3)C(=O)C(=O)N2CCCN(C)C)cc1 (stereo not drawn),active: 39.8 µM,
CN(C)c1ccc(N=Nc2ccccc2C(=O)OCC(=O)NC2CCCC2)cc1,active: 11.2 µM,
COC(=O)C1=C(C)NC(C)=C(C(=O)OC)C1c1cc2cc(C)ccc2[nH]c1=O,,inconclusive: -57.3% [inhibitor]
Cc1ccc2nc(COc3cccc(NC(=O)COc4ccccc4F)c3)cc(=O)n2c1,,inactive: 3.88%
CCOC(=O)c1cc(-c2ccccc2)n(-c2cccc(C(=O)Nc3cccc(C)c3)c2)c1C,"inconclusive: 17.8 µM [inhibitor, partial curve, poor fit]",
Nc1nonc1-c1noc(N2CCCCC2)n1,"inconclusive: 89.1 µM [inhibitor, partial curve, poor fit]",
CCN(c1ccccc1)S(=O)(=O)c1ccc(OC)c(NC(=O)CNCCc2ccccc2)c1,"inconclusive: 3.16 µM [inhibitor, single point]",
CN(C)c1cccc(C(=O)N2CCCC(C(=O)c3cc(F)ccc3F)C2)c1 (stereo not drawn),"inconclusive: 44.7 µM [inhibitor, partial curve]",
